{"sequences": {"note": "Chains of the proteins cited; added tags and fusions are not shown.", "UniProt Q09196": "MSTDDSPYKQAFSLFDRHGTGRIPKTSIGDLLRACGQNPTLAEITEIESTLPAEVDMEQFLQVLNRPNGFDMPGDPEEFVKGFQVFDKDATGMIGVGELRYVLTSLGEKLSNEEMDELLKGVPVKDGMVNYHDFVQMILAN"}, "source": "paper PMC2704394", "about": "(2009)", "binders": {"B1": {"name": "S. pombe Pik1 C-terminal region (residues 507-851), wild type, fused to the GAL4 transcription activation domain (domain or fragment, UniProt Q10366 507-851)", "chain": "LEEERLNEPSIYPVSVDISCAEDLRFGKETQKAERKGDRDDPSAATFQEDWYAKKERIRKSSPYGHYPNWDLVSVIVKTGADLRQETFACQLIYAFQRVWLECKEKVWVRRMKILVTGDNSGLIETITNAISVHSIKKNLTKQLREAELAQGKIAGKNVVTLKDYFIKQFGDPNSSRYRQAQTNFLQSLVAYSIISYLLQLKDRHNGNVLIDSEGHIIHIDFGFLLTNTPGNVGFESAPFKLTADYLEILDDRFDEYRSLMKAAFKSVRKNADQIILLVEVMQNNSTMPCFRAGENTSAQLLQRFQLQLGDKECDDFVDLLIQKANCSVWTRLYDLFQNITNGIY"}, "B2": {"name": "S. pombe Pik1 C-terminal region (residues 507-851) D709A fused to the GAL4 transcription activation domain (domain or fragment, UniProt Q10366 507-851)", "chain": "B1 chain with D203A"}, "B3": {"name": "S. pombe Pik1 C-terminal region (residues 507-851) R838A fused to the GAL4 transcription activation domain (domain or fragment, UniProt Q10366 507-851)", "chain": "B1 chain with R332A"}, "B4": {"name": "full length S. pombe Pik1, wild type (enzyme, UniProt Q10366 1-851)", "chain": "MPSSNSGNELLLRFFESAHFTSQLCVAYLSRYPNNIGIHHFLCEKLATFPYEEIEFFIPQLIHLVLNKDSESVALEEFIISQCEQNTQCALITFWYLQAHMVDLGLQPHSSCFKICKRLYNRIQILVFMSSSSLIQSQQKISENVTPALILSGIMLGGVCVPELLKKAGPIAIAQGRKAPRQDPDESDVDVLRRLSTEPRYSLDVLRSSLNNSIVEQHSEVSLRLKAPELTRTHSYQSSATLSIDEQRRVLRSNYFQQEIQFLFALQDISIRLIIVPRQARLSSLRAELALLNNNLPADVNIPLLRSYHKEVSHKIVRIDPKEATILNSAERVPYLIMVEVLSGELSFEPQSKKNKAKVQKIVSHKNQRKRWFDLTDVDPYTNLQDSTDNDISESESEGGDLSMSPLIKGLVPDTLSLSKSFSSFGNVSLQVPSSHRDTDVVLLSGRHSDSDGNGALKRSKIYASEITARMRAAATMLSQLDAEGSRRPKAETERIKNSIILDMQRLEEERLNEPSIYPVSVDISCAEDLRFGKETQKAERKGDRDDPSAATFQEDWYAKKERIRKSSPYGHYPNWDLVSVIVKTGADLRQETFACQLIYAFQRVWLECKEKVWVRRMKILVTGDNSGLIETITNAISVHSIKKNLTKQLREAELAQGKIAGKNVVTLKDYFIKQFGDPNSSRYRQAQTNFLQSLVAYSIISYLLQLKDRHNGNVLIDSEGHIIHIDFGFLLTNTPGNVGFESAPFKLTADYLEILDDRFDEYRSLMKAAFKSVRKNADQIILLVEVMQNNSTMPCFRAGENTSAQLLQRFQLQLGDKECDDFVDLLIQKANCSVWTRLYDLFQNITNGIY"}, "B5": {"name": "full length S. pombe Pik1 D709A (enzyme, UniProt Q10366 1-851)", "chain": "B4 chain with D709A"}, "B6": {"name": "full length S. pombe Pik1 R838A (enzyme, UniProt Q10366 1-851)", "chain": "B4 chain with R838A"}, "B7": {"name": "full length S. pombe Pik1 D709A, R838A (enzyme, UniProt Q10366 1-851)", "chain": "B4 chain with D709A, R838A"}}, "note": "Substitutions are numbered along the chain they refer to. Names and notes keep the numbering of the source. No constants are given. Whether binding was seen depends on the method and setting. Some entries that bind do so weakly or less than the wild type. For some of these results: Sequences can lack the tags named with a protein."}
{"target": "S. pombe Cdc4 fused to the GAL4 DNA binding domain (S. pombe) (UniProt Q09196)", "assay": "two-hybrid; Cdc4 fused to GAL4-DB (pBI880) as bait, Pik1 507-851 fused to GAL4-TA (pBI771) as prey, S. cerevisiae YPB2; colony formation at 30°C for 7-9 days on SD -leucine -tryptophan -histidine +3-AT; X-gal colony filter assay"}
{"binder": "B1", "binding": "binds"}
{"binder": "B2", "binding": "binds"}
{"binder": "B3", "binding": "no binding"}
{"target": "purified Cdc4 protein (S. pombe) (UniProt Q09196)", "assay": "ELISA; wells coated with purified Cdc4 at 10 µg/ml; two-fold dilutions of S. pombe cell lysates (56 µg to 14 µg protein) in PBS, 16 h at 4°C; detected with rabbit anti-Pik1 serum and anti-rabbit IgG-HRP; only the target purified"}
{"binder": "B4", "binding": "binds"}
{"binder": "B5", "binding": "binds"}
{"binder": "B6", "binding": "no binding (tested: lysate with 56 µg to 14 µg protein)"}
{"binder": "B7", "binding": "no binding (tested: lysate with 56 µg to 14 µg protein)"}
